± gives the standard deviation of the averaged measurements. This is one part of the list.
Each sequence was assayed on PfAP2-G AP2 domain (GST-tagged) (assay: gcPBM binding intensity (ln(normalized median fluorescence intensity)); higher = stronger DNA binding).
Outline: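 Binding intensity is defined as the maximum Masliner-normalised natural-log median intensity across replicate spots for either probe orientation. It was measured on an Agilent 4 × 180k array of primer-extended double-stranded 36-bp intergenic genomic probes and negative controls, to which GST-tagged P. falciparum DNA-binding domains made in E. coli were applied for 1 h in 1× PBS with 1% milk, 0.2 mg/ml BSA, 0.5% salmon testes DNA and 0.03% Triton X-100. Detection was by Alexa488 anti-GST antibody and scanning at 488 nm.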

Sequence | gcPBM binding intensity (ln)
AATATATATATGTGTACACATCCAAAATAGGCATAC [CACACA_site5705] | 11.7 ± 1.1
ATAACGGAAAAAAAAAGTACATGATATAAACATGAA [XGTACX_site8428] | 11.2 ± 0.75
TTTTTTTTTTTTTTTTTTTTTTTTCATTTGATATTA [TGCATGCA_negctrl_site112] | 9.54 ± 0.45
TTTGTATTAAAAAAAAAAAAAAAAAAAATGAATAAA [TGCATGCA_negctrl_site292] | 9.58 ± 0.2
TTATTTATTCTATGTGCATGTTATTTTTTTTTTTCG [TGCATGCA_site262] | 9.865 ± 0.064
AAAAATAAGATATATACACACATATAAATATAAATA [CACACA_site7396] | 9.74 ± 0.14
TATATATATATATGTGGTACATAAAATTATTATTTT [XGTACX_site4554] | 11.3 ± 0.78
ATAAAATTATCTACATGTACTCATATATATTTGTTT [XGTACX_site5911] | 11.2 ± 0.67
AGAGAGAAAGTTATAACATGCAACAATTTTTAGAAG [TGCATGCA_site1] | 9.8 ± 0.071
CTTTAAACCCTGAACACACACAAATACACCCAAAAA [CACACA_site4297] | 10.7 ± 0.54
AAAAAAAAAAAAAACACACAGAAATATATATATATT [CACACA_site832] | 9.82 ± 0.33
AAAGGAAAAGTTGACTGTACATAAGTAAAAAATAAT [XGTACX_site788] | 11 ± 0.35
TTTATACAAATATGTACACACTAAATATATATTATG [CACACA_site4413] | 11.5 ± 0.77
ATTCATTCCATACTTTAACACACAAATATATTTAAT [CACACA_site7930] | 10.17 ± 0.085
ATATTATACGCATATGTGCGCATACATTTTTTTGCA [GTGCAC_site9540] | 10.22 ± 0.035
TTATTTACAAAACAAATCAAAATATCCAAAAGAATA [CACACA_negctrl_site1789] | 9.825 ± 0.007
GAAATTACTTTATAAACACACATTTATTTTATTTTA [CACACA_site7007] | 9.79 ± 0.17
GGCATATATATATGCACACATACATATATACATGTG [CACACA_site3859] | 10.4 ± 0.2
TACACATACAGACATACACACATACCCATATACTCA [CACACA_site5037] | 10.07 ± 0.099
TTTTTGTAACCGATTCTGCACTGAGAAGCACATATA | 10.2 ± 0.2
AGATTGTAAGTAAACACACACACATATATATGTATA [CACACA_site675] | 9.965 ± 0.064
TCATATTTATATAAATGTACTTAATTGGTTTCTTTA [XGTACX_site7848] | 11.1 ± 0.61
ATGTTATTAATAATTGCACACATTTTTTTTTTTTTT [CACACA_site3920] | 10.06 ± 0.021

Sequence | gcPBM binding intensity (ln)
CTTAAAATATATTTAGTGCATATACTAATATATTAT | 9.875 ± 0.049
TATATATATATATTATGTACATATATAAATTAACAT [XGTACX_site3368] | 11.2 ± 0.83
AATATAGGAATATGCACACATATATACATACATACA [CACACA_site1521] | 10.3 ± 0.2
TTTTTTAAAGTTTAAAGTACATATAAAAATATATAA [XGTACX_site5267] | 11 ± 0.67
AAAAAAATAAAATATATATATATATATATATATATA [GTGCAC_negctrl_site706] | 9.96 ± 0.89
TATATATGGATATATACACACAACGGTTATAAATAT [CACACA_site6655] | 10.095 ± 0.007
ATAAATTCATACATTTGTACACAAAAAAAAAAAAAA [XGTACX_site2435] | 11.3 ± 1.1
CCTTATACGATATTATGTACGCATATGTGCATTTTT [XGTACX_site1570] | 11.5 ± 1
AATTAATAAAAAAGGTGTACAGTAAATGCAATAATC [XGTACX_site7956] | 11.7 ± 0.99
TCTTTTATATATAATAATTATATATAACATTCAAAC [GTGCAC_negctrl_site112] | 9.93 ± 0.099
GTTAATCACCATGTGGTGCATATAAGGGCATATTAT [GTGCAC_site9748] | 10.4 ± 0.23
TATTATATAATATACTGTACAATATCCATTATTTAC [XGTACX_site7091] | 10.7 ± 0.4
TATATTTACTTATATGCACACATAAATGTGAATTAT [CACACA_site9258] | 9.89 ± 0.085
ACATATAATAAAATAGTGCATTGTTAGTTTTATATA | 9.875 ± 0.021
ATATATATATATTTATGTACATATTATTTATTCTTT [XGTACX_site6567] | 11.4 ± 0.59
ATTATTTGATTAAAGGTGCAAGGATAATAATAAAAC | 10.3 ± 0.17
TAATGGTATAAAAAATGTACATGTTTTTTTACAATT [XGTACX_site4285] | 11.2 ± 0.54
AATTTTTTTTAATGATGTACTTTTTGAAAATAAACT [XGTACX_site4221] | 11.3 ± 0.85
TTTTCTTTTTCTTGTACACACATAATATGGATGAAA [CACACA_site808] | 11.4 ± 0.7
AAATAAATACATAATACATGCATATTTAATATATAG [TGCATGCA_site135] | 9.71 ± 0.13
GTACAATCATATACTACATGCAGTTTTTTTTATTGA [TGCATGCA_site230] | 10.6 ± 0.28
TAAAGAAACGCATCGACGCACACTACAAAATAAAAA [CACACA_site1348] | 10.2 ± 0.2
TTTTTATTTTTTCAGTGTACATTTAAATTATCTTAT [XGTACX_site3905] | 11.4 ± 0.76

Sequence | gcPBM binding intensity (ln)
ATATATATATATATTTATTCATATATTTTTTGTCTT [TGCATGCA_negctrl_site58] | 10 ± 0.71
TTACTTTTTTTTTTATGTACTTATATTTTTTACACT [XGTACX_site3503] | 11.4 ± 0.73
TATGAATACATTTGTTGTACTTAAATTTCCTTTATT [XGTACX_site5374] | 11.4 ± 0.79
AAATAATTTATGCATACACACATATATATATATATA [CACACA_site4020] | 10.2 ± 0.35
TATAAATATCTGAATTGTACAGGTGAAAAAAAAAAT [XGTACX_site1867] | 10.7 ± 0.38
TTTTTTATTATTATTATTTTTTATGTATAATAATGT [CACACA_negctrl_site631] | 9.7 ± 0.13
TAGATATATAAATACACACACATACACAAAAAAAAA [CACACA_site7652] | 10.4 ± 0.35
AAAAAAAAAAAAAAAAATATATTTATGAAATAAAAA [TGCATGCA_negctrl_site262] | 10.3 ± 0.19
TATTTTTTTTTTTTTTTTTTTTTTATATATACATAT [CACACA_negctrl_site23] | 9.48 ± 0.085
TATAAACGTATAATATGTACACACACATATATACAA [XGTACX_site1686] | 11.3 ± 0.94
ATTATATAGAATTGTACATGCGAATTGTATAACGAT [TGCATGCA_site125] | 11 ± 0.71
TTTCTATTCCATTCAACACACAAAAATGTATGCTTT [CACACA_site1072] | 9.96 ± 0.13
AATGGATATTTCTTTATATATATCTTATTTGATTAT [XGTACX_negctrl_site284] | 9.62 ± 0.16
TATACATGTATATATTGTACATATGTTTTTTTTACA [XGTACX_site3300] | 11 ± 0.5
TTTTTTCAAATTTTCTTTTTTCTTTTGTTTTTTTTG [CACACA_negctrl_site380] | 9.21 ± 0.42
TTACTCATGAAAGATACACACATTCGTTATTTATAT [CACACA_site7517] | 10.07 ± 0.092
TTTTTATAATGATACATATATTATTTTATTCTTAAT [CACACA_negctrl_site124] | 9.65 ± 0.17
TTTTTCTTTCTATTTATCAATATTAAAAAAAAAAAA [CACACA_negctrl_site1629] | 9.94 ± 0.52
CTTGTAGATATAAAATGTACAAAAATAAATTGCACA [XGTACX_site4409] | 10.7 ± 0.54
AGATATTCTACTATGTGTACATATATATATATAATT [XGTACX_site5060] | 11.4 ± 0.76
ATTATTATTAATCTTGTGCACATATATTTTAATTAG | 10.3 ± 0.14
GAAGAAGTTTAAAAAGCACACAAAAAAAAAAAAAAA [CACACA_site9088] | 9.87 ± 0.49
CACAAAATAAATTAAACACACAACATCATATATGTA [CACACA_site846] | 10.04 ± 0.049

Sequence | gcPBM binding intensity (ln)
TAAATTATTATCCCCTCACACACAAAAATAAAAAGA [CACACA_site2886] | 10.5 ± 0.45
TATTTATAAACATACGCACACATTAATATATATATA [CACACA_site9314] | 10.2 ± 0.18
TCTTATGATGGAATGTTAAATATTACATTTTGTTTA [TGCATGCA_negctrl_site503] | 9.51 ± 0.22
TAAGATATAAAAAATGTGCACATTAAAGTATTAATT | 10.3 ± 0.13
TGTTATTCTGCATATACACACAAATAACAATTTAAA [CACACA_site6943] | 10.1 ± 0.23
TAATGTTTCAAAATTTAATATACTACAAATATTATA [TGCATGCA_negctrl_site336] | 9.93 ± 0.41
ATGAACATCCAATATACACACATATATATTTATATT [CACACA_site829] | 9.97 ± 0.057
TTTATATAGAAACACACACACAAAAAAAAAAAAAAA [CACACA_site2646] | 9.81 ± 0.43
TTACAAAAAAAAAGGCGCGGATGGGGGCAATAGCAA [CACACA_negctrl_site238] | 10.6 ± 0.55
CAAAAAAAAAAAAAAACACACATTAAATTATAAAGA [CACACA_site2613] | 9.685 ± 0.064
TATAATATGACAAGAAGTACATATATTTACATATAT [XGTACX_site1571] | 11.2 ± 0.85
ATATAATATTTTAGAGTGCACCGATAACAATAAATA [GTGCAC_site9754] | 10.4 ± 0.4
CACATATATACACATACACACACACCCATACACCCA [CACACA_site8505] | 10.5 ± 0.39
TTTACATTTTAGGAAGTGCATATAATAAATACTATC | 10.1 ± 0.2
TACATAAATACATACACACACATATAACCAATGTAG [CACACA_site5243] | 10.3 ± 0.11
ATCACATTCCACGGTACACACTAAAAGAAAAATCAG [CACACA_site5907] | 11 ± 0.78
ATTTATATTTAATATACACACATTATTTTTTTATAT [CACACA_site574] | 9.955 ± 0.021
AGAGTACAAGTAAATACACACATATATATGAAAATA [CACACA_site1079] | 10.9 ± 0.61
ACAAAATTTACAAAATGTACAAAATATACAAAATGT [XGTACX_site3543] | 10.6 ± 0.28
TATATGTGGGTTTTTTTTATGTGTTTTTCTTTTTTT [CACACA_negctrl_site936] | 10.2 ± 0.18

From the supplement of paper PMC11417369
